Assay results reported in patent publication US20210221874A1 (TRUSTEES OF TUFTS COLLEGE, published 2021).

Legend:
[1] = target: T1, anthrax protective antigen, wild type PA83 (Bacillus anthracis); experiment: cell-based or functional assay
[2] = target: T1, anthrax protective antigen, wild type …; experiment: cell-based or functional assay; remark: listed apart in the source
[3] = target: T1, anthrax protective antigen, wild type …; experiment: dilution ELISA on PA-coated plates
[4] = target: T1, anthrax protective antigen, wild type …; experiment: method not stated

B1: VNA2-PA (JKU-1) (bispecific antibody)
chain: [about 100 residues skipped]GSGSGHMHHHHHHSSGLVPRGSGMKETAAAKFERQHMDSPDLGTDDDDKAMAISDPNSGAPVPYPDPLEPRAAAQVQLAESGGGLVQPGGSLGLSCVVASERSINNYGMGWYRQAPGKQRELVAQISSGGTTNYADSVEGRFTISRDNVKKMVHLQVNSLKPEDTAVYYCNSLLRTFSWGQGTQVTVSSEPKTPKPQAIAGGGGSGGGGSGGGGSLQGQVQLAESGGGGLVQAGGSLRLSCAASGRTFSGYAMGWFRQAPGKEREFVADISWSGHNTYYGDSVKGRFTISRDTAKNTVYLQMNSLKPEDTAVYYCAAEGARTHLSDSYYFPGLWAEPPVGYWGQGTQVTVSSEPKTPKPQPARQGAPVPYPDPLEPRGGGSDICLPRWGCLWED
notes: also called heterodimer of JIK-B8 and JKH-C7
For B1, the “IC50 (read off the curve)” value [1] was ~0.5 nM, the “IC50 (anthrax lethal toxin neutralization, RAW264.7 macrophages)” value [2] was 0.5 nM and the EC50 [3] was 1 nM. The Kd [4] was 0.07 nM.
